The source of these data is ChEMBL document CHEMBL1961873, “Compounds: GSK PKIS; Assays: Nanosyn kinase panel” (2012).

For some of these results: The strong results were mostly taken out for another list; the other results follow. The entries are a selection whose mix differs from that of the whole data set.

The target of experiment [1] is RAF proto-oncogene serine/threonine-protein kinase (Homo sapiens) (UniProt P04049). Particulars: at 1 µM.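 Further: values are the mean percent inhibition of CRAF.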
UniProt P04049, sequence (P04049 whole entry): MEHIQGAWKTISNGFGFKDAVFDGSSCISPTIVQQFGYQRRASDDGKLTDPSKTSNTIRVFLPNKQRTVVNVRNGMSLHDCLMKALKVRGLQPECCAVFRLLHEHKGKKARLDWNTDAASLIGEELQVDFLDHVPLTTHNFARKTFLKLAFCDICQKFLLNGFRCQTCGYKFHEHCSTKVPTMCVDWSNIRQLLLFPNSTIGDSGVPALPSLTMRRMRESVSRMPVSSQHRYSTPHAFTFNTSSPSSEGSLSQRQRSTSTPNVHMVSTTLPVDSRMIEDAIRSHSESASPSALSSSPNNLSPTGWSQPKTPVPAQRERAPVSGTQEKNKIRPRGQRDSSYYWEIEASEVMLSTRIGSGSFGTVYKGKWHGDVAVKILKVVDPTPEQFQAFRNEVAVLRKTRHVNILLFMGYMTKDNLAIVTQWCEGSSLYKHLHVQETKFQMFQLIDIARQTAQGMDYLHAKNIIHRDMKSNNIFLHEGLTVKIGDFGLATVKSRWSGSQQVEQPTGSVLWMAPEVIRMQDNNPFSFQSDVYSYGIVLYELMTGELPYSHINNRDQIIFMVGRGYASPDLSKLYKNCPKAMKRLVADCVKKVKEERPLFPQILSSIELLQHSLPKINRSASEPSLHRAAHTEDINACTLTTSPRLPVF
Experiment [2] concerns the target T1, Interleukin-1 receptor-associated kinase 4 (Homo sapiens) (UniProt Q9NWZ3).
T1 sequence (whole entry): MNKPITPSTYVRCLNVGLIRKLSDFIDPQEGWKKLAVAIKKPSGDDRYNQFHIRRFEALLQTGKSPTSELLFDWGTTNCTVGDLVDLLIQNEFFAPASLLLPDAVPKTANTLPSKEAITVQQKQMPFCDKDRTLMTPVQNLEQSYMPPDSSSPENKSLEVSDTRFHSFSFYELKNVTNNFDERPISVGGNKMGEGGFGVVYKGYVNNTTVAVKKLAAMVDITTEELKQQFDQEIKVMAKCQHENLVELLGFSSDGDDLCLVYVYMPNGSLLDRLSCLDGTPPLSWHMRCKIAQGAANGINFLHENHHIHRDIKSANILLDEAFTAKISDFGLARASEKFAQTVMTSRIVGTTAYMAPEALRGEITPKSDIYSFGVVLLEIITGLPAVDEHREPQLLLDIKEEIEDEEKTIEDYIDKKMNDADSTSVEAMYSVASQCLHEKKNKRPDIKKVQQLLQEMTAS
Particulars: at 0.1 µM.

Experiment [3] addresses T1, Interleukin-1 receptor-associated kinase 4 (Homo sapiens). Particulars: at 1 µM.
Experiment [4] concerns the target Leucine-rich repeat serine/threonine-protein kinase 2 (Homo sapiens) (UniProt Q5S007). Particulars: at 0.1 µM.
UniProt Q5S007, sequence (Q5S007 whole entry): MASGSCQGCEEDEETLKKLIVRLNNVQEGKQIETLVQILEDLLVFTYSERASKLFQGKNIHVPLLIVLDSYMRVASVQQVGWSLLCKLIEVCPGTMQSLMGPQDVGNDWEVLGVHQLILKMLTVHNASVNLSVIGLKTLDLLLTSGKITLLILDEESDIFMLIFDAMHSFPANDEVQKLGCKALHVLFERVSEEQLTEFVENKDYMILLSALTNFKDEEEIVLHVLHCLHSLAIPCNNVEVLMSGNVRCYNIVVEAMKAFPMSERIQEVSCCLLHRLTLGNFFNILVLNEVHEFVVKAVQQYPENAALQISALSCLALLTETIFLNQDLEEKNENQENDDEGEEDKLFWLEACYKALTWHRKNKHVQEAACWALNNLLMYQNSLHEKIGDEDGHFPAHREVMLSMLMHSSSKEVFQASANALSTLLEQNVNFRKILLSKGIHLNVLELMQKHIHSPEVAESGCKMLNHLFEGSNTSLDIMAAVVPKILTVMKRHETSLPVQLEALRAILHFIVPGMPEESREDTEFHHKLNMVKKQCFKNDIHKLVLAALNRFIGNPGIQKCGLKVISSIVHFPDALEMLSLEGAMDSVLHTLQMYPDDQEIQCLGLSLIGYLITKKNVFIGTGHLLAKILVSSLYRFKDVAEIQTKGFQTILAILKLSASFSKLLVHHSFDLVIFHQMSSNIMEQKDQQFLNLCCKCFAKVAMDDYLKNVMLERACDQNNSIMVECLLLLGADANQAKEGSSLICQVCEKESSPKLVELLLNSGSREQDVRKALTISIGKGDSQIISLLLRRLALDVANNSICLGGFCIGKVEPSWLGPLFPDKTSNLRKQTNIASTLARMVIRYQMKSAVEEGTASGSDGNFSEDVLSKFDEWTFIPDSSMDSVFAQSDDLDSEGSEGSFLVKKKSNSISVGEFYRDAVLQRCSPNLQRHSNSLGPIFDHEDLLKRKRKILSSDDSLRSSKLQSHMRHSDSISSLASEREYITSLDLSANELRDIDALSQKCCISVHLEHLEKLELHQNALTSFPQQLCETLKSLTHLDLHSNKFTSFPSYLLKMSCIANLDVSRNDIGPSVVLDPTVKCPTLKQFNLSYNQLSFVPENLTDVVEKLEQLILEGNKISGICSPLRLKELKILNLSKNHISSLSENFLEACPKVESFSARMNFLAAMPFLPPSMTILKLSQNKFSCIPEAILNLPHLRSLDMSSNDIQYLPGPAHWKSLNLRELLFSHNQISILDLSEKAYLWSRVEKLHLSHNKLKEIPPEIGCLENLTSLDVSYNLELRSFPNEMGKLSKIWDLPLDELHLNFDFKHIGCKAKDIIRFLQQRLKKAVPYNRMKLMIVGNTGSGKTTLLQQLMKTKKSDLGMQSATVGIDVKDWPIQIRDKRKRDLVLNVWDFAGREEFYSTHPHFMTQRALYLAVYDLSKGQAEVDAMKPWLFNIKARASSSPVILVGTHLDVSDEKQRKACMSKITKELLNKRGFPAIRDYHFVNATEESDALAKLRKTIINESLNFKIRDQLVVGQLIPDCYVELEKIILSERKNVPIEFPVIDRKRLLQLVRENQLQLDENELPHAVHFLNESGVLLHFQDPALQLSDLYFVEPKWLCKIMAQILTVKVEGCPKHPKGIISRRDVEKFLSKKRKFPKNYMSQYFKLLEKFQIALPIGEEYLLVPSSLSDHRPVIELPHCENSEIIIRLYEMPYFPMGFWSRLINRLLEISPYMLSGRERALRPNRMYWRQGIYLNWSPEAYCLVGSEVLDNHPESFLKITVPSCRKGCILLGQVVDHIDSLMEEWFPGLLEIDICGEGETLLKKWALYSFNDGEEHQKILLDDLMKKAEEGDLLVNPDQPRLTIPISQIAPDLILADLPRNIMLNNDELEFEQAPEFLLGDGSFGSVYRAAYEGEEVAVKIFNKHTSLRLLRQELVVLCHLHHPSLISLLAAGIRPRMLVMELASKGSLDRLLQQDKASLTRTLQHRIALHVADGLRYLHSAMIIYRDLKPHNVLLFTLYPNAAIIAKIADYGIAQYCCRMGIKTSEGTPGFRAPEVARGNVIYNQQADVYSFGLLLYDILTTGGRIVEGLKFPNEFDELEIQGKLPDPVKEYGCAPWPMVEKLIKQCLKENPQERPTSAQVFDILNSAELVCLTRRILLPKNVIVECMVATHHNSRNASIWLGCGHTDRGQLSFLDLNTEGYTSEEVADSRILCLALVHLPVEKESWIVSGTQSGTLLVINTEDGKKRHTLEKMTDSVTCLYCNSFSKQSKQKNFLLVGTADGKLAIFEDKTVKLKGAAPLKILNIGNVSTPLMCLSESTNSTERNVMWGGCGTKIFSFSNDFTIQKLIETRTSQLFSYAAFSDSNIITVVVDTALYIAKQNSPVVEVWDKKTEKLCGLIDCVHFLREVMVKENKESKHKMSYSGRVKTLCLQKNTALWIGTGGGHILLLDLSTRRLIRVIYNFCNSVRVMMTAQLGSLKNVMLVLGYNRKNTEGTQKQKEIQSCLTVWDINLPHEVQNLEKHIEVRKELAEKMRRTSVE
The target is the same in experiment [5]. The settings on record: at 1 µM.
Experiment [6] has as its system Leucine-rich repeat serine/threonine-protein kinase 2 (Homo sapiens), Q5S007 [G2019S]. The settings on record: at 0.1 µM.
Experiment [7] shares this test system. Particulars: at 1 µM.

`O=C1NC(=O)C(c2ccccc2)=C1Nc1ccccc1`: the inhibition in experiment [1] was 0.27%; in experiment [2], 2.01%; in experiment [3], 2.54%; in experiment [4] it was 5.4%; in experiment [5], 16%; in experiment [6], 4.55%. Moreover, the inhibition in experiment [7] amounted to 21.7%.

As to `O=C1NC(=O)C(c2ccccc2Cl)=C1Nc1cc(Cl)c(O)c(Cl)c1`, the inhibition was -3.29% in experiment [1]; -4.26% in experiment [2]; 0.97% in experiment [3]; 5.19% in experiment [4]; 19.4% in experiment [5]; 2.18% in experiment [6]. The inhibition in experiment [7] stood at 15.9%.

Regarding `COc1ccccc1Oc1nccc(-c2c(-c3ccc(F)cc3)ncn2C2CCNCC2)n1`, the inhibition in experiment [1] was -2.08%; in experiment [2] it was 2.05%; in experiment [3], 2.51%; in experiment [4], 5.39%; in experiment [5] it was 10.7%; in experiment [7] it was 9.79%.

For `Fc1ccc(-c2ncn(C3CCNCC3)c2-c2ccnc(Oc3ccc(Cl)cc3)n2)cc1`, the inhibition in experiment [1] is -3.88%; in experiment [2] it was 0.34%; in experiment [3], 0.58%; in experiment [4] it was 2.39%; in experiment [5], 3.86%; in experiment [6], 3.3%. The inhibition in experiment [7] came out at 4.86%.

As for `COc1ccccc1C1=C(Nc2ccccc2)C(=O)NC1=O`, the inhibition in experiment [1] is 7.07%; in experiment [2], -2.94%; in experiment [3] it was 2.37%; in experiment [4], 6.94%; in experiment [5], 19.8%; in experiment [6], 7.96%. The inhibition in experiment [7] turned out to be 43%.

For `Fc1ccc(-c2ncn(C3CCNCC3)c2-c2ccnc(Oc3cccc(C(F)(F)F)c3)n2)cc1`, the inhibition in experiment [1] amounted to 3.35%; in experiment [2] it was 1.97%; in experiment [3] it was 2.24%; in experiment [4], 3.65%; in experiment [5], 2.72%; in experiment [6] it was 5.63%. Also, the inhibition in experiment [7] was determined as 6.94%.

Regarding `NC(=O)CCc1ccccc1Oc1nccc(-c2c(-c3ccc(F)cc3)ncn2C2CCNCC2)n1`, the inhibition in experiment [1] is -0.43%; in experiment [2], -0.81%; in experiment [3] it was -0.77%; in experiment [4] it was -0.3%; in experiment [5] it was -2.56%; in experiment [6] it was 1.67%. Further, in experiment [7], the inhibition came to 2.77%.

With `O=C1NC(=O)C(c2cccc([N+](=O)[O-])c2)=C1Nc1cc(Cl)c(O)c(Cl)c1`, the inhibition in experiment [1] came to 9.49%; in experiment [2], 0.93%; in experiment [3] it was 0.63%; in experiment [4], 4.32%; in experiment [5], 21%; in experiment [6], 4.25%. In experiment [7], the inhibition came out at 13.9%.

In the case of `O=C(O)c1ccc(Oc2nccc(-c3c(-c4ccc(F)cc4)ncn3C3CCNCC3)n2)cc1`, the inhibition is 1.09% in experiment [1]; 2.29% in experiment [2]; 2.96% in experiment [3]; -0.02% in experiment [4]; 4.54% in experiment [5]; 5.67% in experiment [6]. Besides, the inhibition in experiment [7] is 7.17%.

In the case of `Cc1cccc(Oc2nccc(-c3c(-c4ccc(F)cc4)ncn3C3CCNCC3)n2)c1C`, the inhibition is -2.91% in experiment [1]; 0.99% in experiment [2]; 1.42% in experiment [3]; 3.93% in experiment [4]; 5.9% in experiment [5]; 6.1% in experiment [6]. The inhibition in experiment [7] amounted to 6.11%.

For the molecule `CS(=O)(=O)c1ccc(Oc2nccc(-c3c(-c4ccc(F)cc4)ncn3C3CCNCC3)n2)cc1`, the inhibition in experiment [1] stood at 0.92%; in experiment [2], 1.58%; in experiment [3] it was 2.09%; in experiment [4], 0.64%; in experiment [5] it was 1.79%; in experiment [6], 1.98%. For the same molecule, in experiment [7], the inhibition is 3.86%.

For the molecule `Fc1ccc(Oc2nccc(-c3c(-c4ccc(F)cc4)ncn3C3CCNCC3)n2)cc1`, the inhibition is 1.41% in experiment [1]; 1.36% in experiment [2]; 1.99% in experiment [3]; -7.79% in experiment [4]; -7.97% in experiment [5]; -1.5% in experiment [6]. Further, the inhibition in experiment [7] was -0.89%.

Regarding `Fc1ccc(-c2ncn(C3CCNCC3)c2-c2ccnc(Oc3cccc(F)c3)n2)cc1`, the inhibition in experiment [1] was -2.04%; in experiment [2], 2.63%; in experiment [3] it was 3.7%; in experiment [4], 1.96%; in experiment [5] it was 5.87%; in experiment [6], 3.94%. In addition, the inhibition in experiment [7] was found to be 8.54%.

Regarding `CC(C)(C)c1ccc(Oc2nccc(-c3c(-c4ccc(F)cc4)ncn3C3CCNCC3)n2)cc1`, the inhibition in experiment [1] turned out to be 2.42%; in experiment [2] it was 1.66%; in experiment [3], 1.82%; in experiment [4], 0.01%; in experiment [5], 2.66%; in experiment [6] it was 2.16%. Further, in experiment [7], the inhibition came out at 5%.

The inhibition is the relative decrease from the control value, in per cent.
